Experimental data: PubChem BioAssay AID686978 (National Center for Advancing Translational Sciences (NCATS), 2013)
“And” between values parts separate entries of the source, which are not always exact repeats. Identical values can stand only once. Among all 420,000 compounds or so, about 64,000 (15%) were called active. Inconclusive results, whose numbers are uncertain, are shown with a selection of clear calls. Calls follow the shape of the dose curve; as a rule, active = well fitted inhibition curve with a large enough effect; inconclusive = small, poorly fitted or top-dose-only effect; inactive = flat fitted curve, though single readings scatter. Potencies of inconclusive entries are left out as doubtful fits. The source holds several records for some structures; these can differ, active in one and inactive in another.

experiment: qHTS for Inhibitors of human tyrosyl-DNA phosphodiesterase 1 (TDP1): qHTS in cells in absence of CPT; conditions: DT40 Tdp1-/- hTDP1 cells, no CPT, ATP luminescence, 48 h; activity change, negative = growth inhibition: at 46.2 µM (top of the series) unless noted; also: nearly all actives have a fitted effect of over 55% in size
In short: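 Seeded 400 DT40-hTDP1 cells/well (vehicle DMSO, no 20 nM CPT); pinned compounds; ≥48 hr at 37 °C; CellTiter-Glo luminescence as viability measure.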
% is scaled to controls: 0 for no effect and ±100 for the full control effect; potency is read from the fitted curve at half-maximal effect; tags tell the direction and shape of the fitted curve.

SMILES	Potency	activity change, negative = growth inhibition
COc1ccc([N+](=O)[O-])c(S(=O)(=O)c2ccc(Cl)cc2)n1	active: 0.651 µM	–
COc1ccc(-c2ccc(CCC(=O)O)n2-c2ccccc2C(F)(F)F)cc1	inconclusive [inhibitor, single point]	–
O=C(CSc1ncnc2c1nnn2Cc1ccc(F)cc1)NC1CCCC1	–	inactive: 1.56%
Fc1cccc(Cl)c1C1SCc2nc3ccccc3n21 (stereo not given)	active: 14.6 µM	–
Nc1nc(COC(=O)C2CC(=O)N(CCc3ccccc3)C2)nc(Nc2ccccc2)n1 (stereo not given)	–	inactive: 2.25%
COc1ccc(-c2nc3ccccc3o2)cc1NC(=O)c1cc([N+](=O)[O-])ccc1N1CCOCC1	–	inconclusive: -14.1% [inhibitor]
O=C(O)c1ccc(CN2C[C@@H](CO)O[C@@H](n3cnc4c(NCc5ccco5)ncnc43)C2)cc1	–	inactive: 3.37%
CCN(/N=C/c1ccc(N(C)C)cc1)c1nc2ccccc2[nH]1	inconclusive [inhibitor, single point]	–
Cc1ccc(C(=O)C[n+]2cc(Br)cc(Br)c2)cc1[N+](=O)[O-]	–	inconclusive: -30.7% [inhibitor]
CCCn1c(N)c(C(=O)CN(C)CC(=O)Nc2c(C)cc(C)cc2C)c(=O)[nH]c1=O	inconclusive [inhibitor, single point]	–
O=C(Nc1ccc(Br)cc1F)c1nc[nH]c1C(=O)N1CCc2ccccc2C1	inconclusive [inhibitor, single point]	–
CS(=O)(=O)c1ccc(-c2cccc(NC(=O)c3ccco3)c2)nn1	active: 18.4 µM	–
O=C(NC1CCCCCC1)C(=S)N1CCOCC1	active: 16.4 µM	–
Cc1ccc(C)c(S(=O)(=O)N/N=C/c2cccnc2)c1	inconclusive [inhibitor, single point]	–
COc1ccc(NC(=O)COc2ccccc2Cc2ccccc2)cc1S(=O)(=O)N1CCOCC1	inconclusive [inhibitor, single point]	–
Cc1ccc(NS(=O)(=O)c2ccc3c(c2)NC(=O)CO3)cc1Cl	inconclusive [inhibitor, single point]	–
O=C(C1CCC(=O)N1Cc1ccccc1Cl)N1CCN(c2cccc(Cl)c2)CC1 (stereo not given)	active: 23.1 µM	–
COc1ccc(NC(=O)COc2nc3ccccc3nc2N2CCOCC2)c(OC)c1	–	inactive: -26.5%
Cc1c(Nc2ncccc2C(=O)O)cccc1C(F)(F)F	inactive and active: 4.04 µM	–
O=C1CC(c2ccccc2)CC(O)=C1C=NCc1ccco1 (stereo not given)	inconclusive [inhibitor, partial curve, poor fit]	–
